# Measured values as given in the supplement of paper PMC11417369.
# ± gives the standard deviation of the averaged measurements. The list shows a part of the results.
# Tested on: PfAP2-EXP AP2 domain (GST-tagged)
# Test: gcPBM binding intensity (ln(normalized median fluorescence intensity)); higher = stronger DNA binding
# Method in brief: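 Using an Agilent 4 × 180k array, primer-extended double-stranded 36-bp intergenic genomic probes and negative controls were exposed for 1 h to GST-fused P. falciparum DNA-binding domains expressed in E. coli. Binding was carried out in 1× PBS with 1% milk, 0.2 mg/ml BSA, 0.5% salmon testes DNA and 0.03% Triton X-100, and protein was detected with Alexa488 anti-GST antibody and a 488 nm scan. Binding intensity is the highest Masliner-normalised natural-log median intensity across replicate spots of either probe orientation.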
row,Sequence,gcPBM binding intensity (ln)
1,TGAACAACTATTACTGCACACATTCTTACACTATAT [CACACA_site4533],8.95 ± 0.24
2,TTTTTTAAACGTTTAAATAATTAAATATAAATAAAT [CACACA_negctrl_site1567],8.29 ± 0.49
3,AAAAAAGAAACAATCGCATGCAATGTTAATGTACAT [TGCATGCA_site395],9.6 ± 0.33
4,AGGTGTCATATATGCACACAAAAGTAACACGCACCT [CACACA_site472],8.99 ± 0.18
5,TACGCAAAATAAAATCAAAATATAAGGAAAAAAAAA [TGCATGCA_negctrl_site578],8.41 ± 0.42
6,ACATTTATTTTGAATGGTACACTATTATTATGAAAT [XGTACX_site4384],8.36 ± 0.38
7,GACCTACAAAAAGGCACACATATACTCATACATACA [CACACA_site5232],8.6 ± 0.38
8,GTGTAATGCTTATCGGTGCATATATATATATATATA,10.1 ± 0.36
9,GATAATTTTTGCATATGTACTTAAAAATTAAAAATT [XGTACX_site7037],8.81 ± 0.39
10,AAAAAAAAAAAAGGTACTACACACTATTATCAATAG [XGTACX_site161],8.38 ± 0.49
11,AATTCTTTTTTCAACACACACACACCCGAAAATATA [CACACA_site3111],8.87 ± 0.53
12,ATATAGGTAATATTTTGTACATATTTTTGGGGTAGT [XGTACX_site5634],9.41 ± 0.94
13,AGATACTTTTTTAAAAGTACAAAAACTTTCGATATA [XGTACX_site959],8.3 ± 0.38
14,ATATTTTTTGTATGTTGTACATAAAATATACATTTT [XGTACX_site6815],8.36 ± 0.23
15,CATACATACATACATACACACATACATATATATATA [CACACA_site8388],9.91 ± 0.14
16,TCTAAAATAGTCCAGAGTACAAGAAACCATAATATA [XGTACX_site5237],8.54 ± 0.33
17,ATAAAAATATAAACATGTACATAAAAATCTATATAT [XGTACX_site405],8.85 ± 0.36
18,TTGCTTATATTTCTAAAATGTAAAAGACACAAAGGT [XGTACX_negctrl_site225],8.85 ± 0.29
19,TTCTAATATATGCATACACACAAATGTGAATATACA [CACACA_site2142],8.6 ± 0.3
20,AAAAATGCAATTTAATGTACACATAAGATGTTATTT [XGTACX_site6853],8.37 ± 0.35
21,TTTTTTATTACTTTGTGTACTTACACAGAACCTTAT [XGTACX_site6038],8.8 ± 0.28
22,ATATATTTATTTATATGTACATAATATTTTTCTCAG [XGTACX_site800],8.6 ± 0.37

row,Sequence,gcPBM binding intensity (ln)
1,AAAAAAAAAAAAAACACACACACACCCAAATATATA [CACACA_site1169],8.71 ± 0.3
2,TAAAAAAACATATATTGTACGGAGATAATAATTTTT [XGTACX_site2946],8.68 ± 0.32
3,AAAAATAAAAAAATAATAAAATAAAAAATAAAAAAT [TGCATGCA_negctrl_site89],8.35 ± 0.57
4,ATGTATAAACATATATGTACTTAAATAAAATGTTAA [XGTACX_site4044],8.59 ± 0.3
5,ATTAAAAGAACAATGTAAAAAAAGCAAATTAAAGAT [TGCATGCA_negctrl_site360],9.08 ± 0.49
6,CACCAATTCATATGCACACACATCTGCATATTATAT [CACACA_site1773],8.9 ± 0.23
7,TATACTGTCAATTCTACACACCATAGGGGGAGCATA [CACACA_site1875],9.63 ± 0.23
8,TTATTAAATGAAAAATGTACATATAAATGATTATAT [XGTACX_site2788],8.51 ± 0.25
9,GAAATGTGTAGACACGCACACACAAAAAAATATATA [CACACA_site2912],8.62 ± 0.33
10,TATACATATTTAATATGTACATAATAATACTTATTC [XGTACX_site6939],8.29 ± 0.31
11,CCAAATTTATAAAGAACACACACATATATATATATA [CACACA_site7900],9.99 ± 0.4
12,AAGCATGTAGAATAATGTACTTGTGATTTTAATATA [XGTACX_site8565],8.29 ± 0.3
13,AAAAAAAAAATACAGGTGCAATAAGAAAAAAATGGT,9.28 ± 0.26
14,TATATTAACAAAATGGTGCAATAATTTCTATATTAT [GTGCAC_site9857],8.695 ± 0.049
15,TCGTTTCCTTAAAATTGTACTTTTTTTTTTTTTTTT [XGTACX_site64],8.73 ± 0.26
16,TATTATAAAGAAATTACACACATGCAATGAAAAAAA [CACACA_site1697],8.89 ± 0.32
17,TGTTATTATTTGTACACACACATATAGATCCTTGTT [CACACA_site7667],8.86 ± 0.26
18,TAATGATAAATACATACACACAAAAAATAATATATA [CACACA_site2576],8.75 ± 0.49
19,AGAGTATATATATATGCATGCATATCTCATATTTAT [TGCATGCA_site509],9.635 ± 0.021
20,ATAGAAATTATAAATAGTACATAATAAAAATGAGCA [XGTACX_site822],8.94 ± 0.3
21,TGAGGAAACATGAGATGTACATATAAATTTTTTTTT [XGTACX_site2595],8.36 ± 0.52
22,CCTAAATATTTTTTATGTACATATTTATCTAAATTT [XGTACX_site6835],8.82 ± 0.31

row,Sequence,gcPBM binding intensity (ln)
1,ATTAAAGAGATATATACACACATTATGGGGGAATAA [CACACA_site6226],9.34 ± 0.44
2,TAAGAAATAAATAGTACACACATAGACACCCACCCA [CACACA_site8429],9.46 ± 0.49
3,AAACAAAATGGTAACACACACATATATAAATATGTA [CACACA_site6994],8.43 ± 0.45
4,AGGGTTACAAGAGGAACACACAAAAAAATAAATAAA [CACACA_site1436],8.71 ± 0.71
5,AAAAAAAATAGACACACACACATACACATAAATATA [CACACA_site7742],8.79 ± 0.52
6,TTTATATTACAATAATATATTAAAAAATAAAATATA [TGCATGCA_negctrl_site18],7.95 ± 0.69
7,ATTAAATCTATATATACACACATGTTTGGTATATTC [CACACA_site2657],8.64 ± 0.38
8,TTTGTAATAAACTACTTTTTTTTTTTTTTTTTTTTT [CACACA_negctrl_site571],8.92 ± 0.057
9,ATCTATTTCTATTGTTGTACTTATTTTTCATTGTTT [XGTACX_site6942],9.29 ± 0.69
10,CGATTACTAATTTTTAGTACATATAATCAATATGTA [XGTACX_site7857],8.13 ± 0.25
11,ATGTAGCCTTACGCTTGTACGAATATCTTAATTTTT [XGTACX_site4331],8.46 ± 0.36
12,TTCATATAAATACATGCACACAAAAATATCAATACA [CACACA_site8753],9.07 ± 0.24
13,ATATATTTTATTACCAGTACATATATTAAAATAATA [XGTACX_site8440],8.45 ± 0.38
14,ATATAATGTGTAGGCCGTATTTACGTTTGGCAATCA [CACACA_negctrl_site1130],8.65 ± 0.48
15,ATTTTTTTATTTGATTGTACAATTTTCTTTCAAAAT [XGTACX_site2902],8.9 ± 0.48
16,TATACAATATAAAATACACACGCACCCAAAAAAAAA [CACACA_site9174],8.86 ± 0.52
17,TATAATATAATATATATATATATATATATATAAGAA [CACACA_negctrl_site78],8.56 ± 0.13
18,ATATATTTATTAAGGTGTACAAAAATTATGTTGCAT [XGTACX_site7546],8.64 ± 0.3
19,TATTTTATCTAAGGATGTACATTATTAAGAAAATGT [XGTACX_site6123],8.26 ± 0.4
20,ATTTATTTATATAGAAGTACATATTTATTTATATAT [XGTACX_site6283],8.19 ± 0.23
21,TAGAAATATAATTAATGTACATATGATATTATATAT [XGTACX_site923],8.38 ± 0.33
22,ACATCAAGCAGACACACACACACACCCACCCACCGA [CACACA_site371],8.7 ± 0.59

row,Sequence,gcPBM binding intensity (ln)
1,CTTTTTTAAATTATTGCACACAAAAATGAAAGGAAA [CACACA_site8412],8.51 ± 0.33
2,AACGAGCAAGACGGGGTGCACACAAACTAATATGCC [GTGCAC_site9436],9.66 ± 0.28
3,TAATAAAAGATATATACACACAAATAAATAAATAAA [CACACA_site7818],8.7 ± 0.39
4,AAATATAAAAAAAATATATAATTTTTACATCGAATT [CACACA_negctrl_site544],8.24 ± 0.38
5,AAAAAAAAATATATATATATATATATAAATAAATTT [CACACA_negctrl_site519],8.14 ± 0.47
6,ATAATATAAACATATTGTACACATATATTGCTATTT [XGTACX_site2799],8.51 ± 0.26
7,TTATTATTGTTATGTTGTACTTTTACAAACTTTTTG [XGTACX_site8797],8.8 ± 0.36
8,TTCTATGAATTCATAGTGCAAATGAGTTATTTTTTC [GTGCAC_site9709],8.44 ± 0.23
9,AAGAAAATAGGGTTCATAGGATTATACTTTTGGAAT [TGCATGCA_negctrl_site80],8.22 ± 0.67
10,GTTATACGCATATATACACACATATGTAAATATATA [CACACA_site3280],8.57 ± 0.42
11,CTTTTTATTAAATATGCATGTGTATCAACAGTGAAT [TGCATGCA_site447],8.74 ± 0.35
12,TAAAAAAAATAGCATACACACATATATACCTATATA [CACACA_site4535],8.24 ± 0.28
13,ATCATAACACCTCCACACAAATAAATATAACATATA [XGTACX_negctrl_site269],8.62 ± 0.63
14,ATGAGTGCACAAATATATATATATATATATATATAT [CACACA_negctrl_site404],10.2 ± 0.47
15,TTGTTTTTTTCTTTTTGTACATATACAACATACATA [XGTACX_site8996],8.86 ± 0.49
16,CATACACCCGGACACACACACACACCCATATATAAT [CACACA_site4494],8.81 ± 0.39
17,GAAAATATATTATTTACACACATGTTCAAATTAAAA [CACACA_site3761],8.35 ± 0.4
18,AAACAATTTATGTGTAGTACATGTTGGAGATAATTT [XGTACX_site6000],8.86 ± 0.38
19,TATTAAATATAAGTCACACATAATTTTTCGTCCTTT [CACACA_site5065],8.37 ± 0.3
20,TACTGATCCACATTTATACACACCTCGGTTTGTAGA [CACACA_site417],8.56 ± 0.4
21,ATATATATATATACAACACACATGTAATATATAAAT [CACACA_site3294],10 ± 0.31
22,TATAGATTCTTTTAATGTACATGTCTTTTCATTTCC [XGTACX_site8348],8.68 ± 0.54
